Laboratory results: the antibiotic and cytotoxicity screens of Wong et al. (2023)
The other results are listed elsewhere or left out.

Legend:
HSkMC = human skeletal muscle cells; test: cytotoxicity call (relative viability < 0.9); settings: 10 µM
HepG2 = test: cytotoxicity call (relative viability < 0.9); settings: 10 µM
S. aureus RN4220 = test: growth inhibition call (relative growth <= 0.2); settings: 50 µM

Compound	cytotoxicity call (HSkMC)	cytotoxicity call (HepG2)	growth inhibition call (S. aureus RN4220)
Cc1noc(C)c1NC(=O)Nc1ccc2c(c1)C(=O)N([C@H](C)CO)C[C@@H](C)[C@H](CN(C)C(=O)Nc1cccc3ccccc13)OCCCC[C@@H](C)O2	inactive	inactive	inactive
C[C@H]1CN([C@@H](C)CO)C(=O)c2cccc(NC(=O)Nc3ccc4c(c3)OCO4)c2O[C@H]1CN(C)C(=O)Nc1cccc2ccccc12	inactive	inactive	inactive
COc1ccc(C(=O)Nc2ccc(CN3C(=O)[C@]4(O[C@H](CC(=O)N5Cc6ccccc6C[C@H]5CO)[C@@H]([Si](C)(C)c5ccc(OC)cc5)[C@@H]4C)c4ccccc43)cc2)cc1	inactive	active	inactive
C[C@@H]1CCCCO[C@@H](CN(C)Cc2ccc(C(=O)O)cc2)[C@@H](C)CN([C@H](C)CO)C(=O)c2cc(NS(=O)(=O)c3cccs3)ccc2O1	inactive	inactive	inactive
C[C@H](CO)N1C[C@H](C)[C@@H](CN(C)C(=O)CN(C)C)Oc2cc(C#Cc3ccccc3)ccc2S1(=O)=O	inactive	active	inactive
C[C@@H]1CCCCO[C@H](CN(C)Cc2ccc(C(F)(F)F)cc2)[C@H](C)CN([C@@H](C)CO)C(=O)c2cc(NS(=O)(=O)c3cn(C)cn3)ccc2O1	inactive	inactive	inactive
CO[C@@H]1CN(C)C(=O)c2ccc(NS(=O)(=O)c3cn(C)cn3)cc2OC[C@H](C)N(Cc2cccc(F)c2)C[C@@H]1C	inactive	inactive	inactive
C[C@@H]1CN([C@@H](C)CO)C(=O)Cc2cc(NC(=O)CCN3CCOCC3)ccc2O[C@H]1CN(C)S(=O)(=O)c1ccc(Cl)cc1	inactive	inactive	inactive
O=C(CS)NCCCCCCNC(=O)[C@@H]1C[C@@H]2C(=O)NCC(=O)N2[C@@H]1c1ccc(O)cc1	inactive	inactive	inactive
C[C@H]1CN([C@@H](C)CO)C(=O)CCCn2nncc2CO[C@@H]1CN(C)Cc1cccc2c1OCCCO2	inactive	inactive	inactive
c1ccc(Cn2c(-c3ccc(OC[C@H](C4CCNCC4)n4c(-c5ccccc5)nc5ccccc54)cc3)nc3ccccc32)cc1	active	active	inactive
COc1ccc(C#Cc2ccc3c(c2)[C@]2(C(=O)N3)[C@H](C(N)=O)[C@H]3C(=O)O[C@H](c4ccccc4)[C@H](c4ccccc4)N3[C@@H]2c2ccc(OCCO)cc2)cc1	inactive	inactive	inactive
COc1cc(/C=C/C(=O)CC2=C[C@H](c3ccc(O)c(OC)c3)SC(NCc3ccco3)=N2)ccc1O	inactive	inactive	inactive
C/C=C/c1ccc([C@H]2[C@H](CO)N(S(=O)(=O)Cc3ccccc3)C23CN(C(=O)C2CCOCC2)C3)cc1	inactive	inactive	inactive
C[C@@H]1CN([C@H](C)CO)C(=O)c2cccc(NC(=O)c3cnccn3)c2O[C@@H]1CN(C)C(=O)Nc1ccc2c(c1)OCO2	inactive	inactive	inactive
C[C@@H]1CN([C@H](C)CO)C(=O)c2cccc(NC(=O)CCCCCC(=O)Nc3ccccc3N)c2O[C@H]1CN(C)Cc1ccccc1	inactive	inactive	inactive
COc1ccc(S(=O)(=O)Nc2ccc3c(c2)CC(=O)N([C@@H](C)CO)C[C@H](C)[C@@H](CN(C)S(=O)(=O)c2c(C)noc2C)O3)cc1	inactive	inactive	inactive
O=C(O)COCC(=O)Nc1cnccn1	inactive	inactive	inactive
COc1cccc(S(=O)(=O)N(C)C[C@H]2Oc3ncc(C#CCN(C)C)cc3C(=O)N([C@H](C)CO)C[C@@H]2C)c1	inactive	inactive	inactive
C[C@H]1CN([C@@H](C)CO)C(=O)Cc2cc(NC(=O)Nc3ccc(C(F)(F)F)cc3)ccc2O[C@@H]1CN(C)C(=O)Nc1ccc2c(c1)OCO2	inactive	inactive	inactive
NS(=O)(=O)c1ccc2c(c1)OCCO2	inactive	inactive	inactive
C[C@@H]1CN([C@@H](C)CO)C(=O)c2cc(NC(=O)C3CCCCC3)ccc2O[C@@H](C)CCCCO[C@H]1CN(C)S(=O)(=O)c1ccc(Cl)cc1	inactive	inactive	inactive
C/C=C/c1cccc(-c2nc(C(=O)NCc3ccccc3)cc3c2[C@H](CCO)N([S@@](=O)C(C)(C)C)C3)c1	inactive	inactive	inactive
Cc1ccc(S(=O)(=O)N(C)C[C@@H]2Oc3ccc(NC(=O)C4CC4)cc3C(=O)N([C@H](C)CO)C[C@H]2C)cc1	inactive	inactive	inactive
